From article PMC10726135
The list shows a part of the results. At the low end of the ranking the order means little. The protein was read in a cell extract, so binding may be indirect.

target: T1, HNF4alpha2 (COS-7 nuclear extract) (UniProt P41235); test: protein-binding microarray; conditions: COS-7 nuclear extract on double-stranded Agilent 4x180k PBM; binding buffer, salt, pH and temperature not given; high values mean tight binding; double strand, one strand shown; sequences stand for … in …GCCTAGGGAGATTAGAGTATCGGTCGA
T1 sequence: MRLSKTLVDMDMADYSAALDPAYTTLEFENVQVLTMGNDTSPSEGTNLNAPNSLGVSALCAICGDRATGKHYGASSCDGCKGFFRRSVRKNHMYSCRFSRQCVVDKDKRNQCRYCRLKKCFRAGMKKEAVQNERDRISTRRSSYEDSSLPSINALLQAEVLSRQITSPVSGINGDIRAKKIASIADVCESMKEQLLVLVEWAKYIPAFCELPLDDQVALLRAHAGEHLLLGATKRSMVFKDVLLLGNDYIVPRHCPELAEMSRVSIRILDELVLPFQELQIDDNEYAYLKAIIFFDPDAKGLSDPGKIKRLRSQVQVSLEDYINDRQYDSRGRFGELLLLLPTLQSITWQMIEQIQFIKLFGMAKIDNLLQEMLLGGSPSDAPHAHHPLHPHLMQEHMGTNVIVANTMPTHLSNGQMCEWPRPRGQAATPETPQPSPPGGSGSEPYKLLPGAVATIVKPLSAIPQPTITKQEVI

Row | Sequence | binding signal (log2 normalized intensity)
1 | TATTTACTGTCCTCAAACTGTCACCTGCCC | 0.664
2 | TGGAGAGAATTCCCATCCCACTAGGTGGCG | -1.19
3 | GCGAGAACTTACTTTTGGCCATCGCACGAG | -1.17
4 | GGAGAAGGAAAAAAATAGGAGACTGTCTTA | -1.1
5 | AGCTCCGACTCAGTGGGGGGGGGGGGGGGG | -1.15
6 | TAAAGATTATGAACTAATTTGTCTTTTCTC | -0.653
7 | CATTGGACCCTCCCAGCCAAACCCCACTCC | 5.01
8 | GTCCAAGATGGCAATGTTCCTGCTCTGTCA | -0.996
9 | CCAAGGGTATGTTTGTGATATTGTGAAATA | 1.92
10 | ACATGAGGGACTGGGAAGAGAAGGTGAACT | -0.161
11 | CACCAATGATCAAAGGTTAGTCTTAGGACC | 3.04
12 | TCTGGTGTTCTCTTGGCCAACAACTAGGGC | -0.975
13 | TTAACTGGAGATAACACAACCCCTACTGTA | 1.18
14 | AGAGTGGCCTTTGGAATCAAACAGATGTAG | 2.01
15 | GAGGTGTCCTGTAAATAGTGTGTCAGGGAA | 1.15
16 | GTCGGGCGGACGGGGAACCCAGCAAACCTG | -1.24
17 | GCTGCCAGAGGGTGGCAGCAGCAGGCAGGG | 2.23
18 | AAGTGACCCTGGTCTTTGCCCTTTCCTAGA | 3.39
19 | GGGAGGAGTTCAGATCACAAAGGAGCTTGT | -0.858
20 | CCCTCTCCCACTCCCCTCCTCCAGATGGGC | 4.7

Row | Sequence | binding signal (log2 normalized intensity)
21 | ATGGGGGATGGGGCCTGGGAGATAAGGGTT | -1.12
22 | TCATCCGCATCTGAAGATAAGAGAAGTTGC | -0.83
23 | GGCAAGTGGTCATGTAGGTGTCTCAGGAAT | 1.41
24 | TCAGCCTTAACTCAAAAGGCCAAAGTCCAA | 8.38
25 | TCCCTCACTGGAGGTTGAATTCCAAAGGTT | 3.42
26 | CTGGGACGTGGCTCAAGATTACAGGTGATC | 1.08
27 | GGTAGTGGACTCTAAGGCAAAACACCCCTT | 2.22
28 | GGACTAAGAATTGCTCAACCTGGACCTCAT | 1.14
29 | CATGAAGCTTCCCCTTTAACCAATATTAGC | 0.498
30 | TGAACTACACAGATTCTGCAAACCTATTAA | -1.15
31 | GGGCCGGTACAAAAGGCCAAAGCCAGGGGA | -1.1
32 | CTTGCCGCATTCCCAGCATTCCAAGTGAGT | -1.08
33 | TTAGTTCTGCAAACACCCCTCCCCCACACA | 5.55
34 | CCCAGCTTTCATCTCGGCTGGCTACTGCTC | -0.8
35 | GAAACTCACATACTGTGGACATAAAAAGAT | -0.728
36 | TCCCACTAGGTGGCGCTGTTGACCTTGAAA | 3.09
37 | ATCTCTGCTCATAATGCCAGGCAGGAAGGA | -1.07
38 | AGACCTCCCCCAACTTACTTAGTGGCTCCT | 2.37
39 | ATTATGAACTAATTTGTCTTTTCTCCCCCG | 4.3
40 | GGCCACTCCCTGGGCAGTGCAGTATGCGCT | -1.15
